Source: PMC4336329 (PLoS ONE, 2015)
The whole screen tested about 310,000 compounds, of which about 14,000 (4.5%) showed an effect of 50% or more. Effects have a minus sign here. The list shows a part of the results.

Target: human ether-à-go-go-related gene (hERG) potassium channel (human, UniProt Q12809)
Assay: primary screen, population patch clamp on CHO cells stably expressing hERG
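Note: peak tail current of the secondary pulse compared with the same well before compound.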

Sequence of human ether-à-go-go-related gene (hERG) potassium channel (Q12809 whole entry, looked up): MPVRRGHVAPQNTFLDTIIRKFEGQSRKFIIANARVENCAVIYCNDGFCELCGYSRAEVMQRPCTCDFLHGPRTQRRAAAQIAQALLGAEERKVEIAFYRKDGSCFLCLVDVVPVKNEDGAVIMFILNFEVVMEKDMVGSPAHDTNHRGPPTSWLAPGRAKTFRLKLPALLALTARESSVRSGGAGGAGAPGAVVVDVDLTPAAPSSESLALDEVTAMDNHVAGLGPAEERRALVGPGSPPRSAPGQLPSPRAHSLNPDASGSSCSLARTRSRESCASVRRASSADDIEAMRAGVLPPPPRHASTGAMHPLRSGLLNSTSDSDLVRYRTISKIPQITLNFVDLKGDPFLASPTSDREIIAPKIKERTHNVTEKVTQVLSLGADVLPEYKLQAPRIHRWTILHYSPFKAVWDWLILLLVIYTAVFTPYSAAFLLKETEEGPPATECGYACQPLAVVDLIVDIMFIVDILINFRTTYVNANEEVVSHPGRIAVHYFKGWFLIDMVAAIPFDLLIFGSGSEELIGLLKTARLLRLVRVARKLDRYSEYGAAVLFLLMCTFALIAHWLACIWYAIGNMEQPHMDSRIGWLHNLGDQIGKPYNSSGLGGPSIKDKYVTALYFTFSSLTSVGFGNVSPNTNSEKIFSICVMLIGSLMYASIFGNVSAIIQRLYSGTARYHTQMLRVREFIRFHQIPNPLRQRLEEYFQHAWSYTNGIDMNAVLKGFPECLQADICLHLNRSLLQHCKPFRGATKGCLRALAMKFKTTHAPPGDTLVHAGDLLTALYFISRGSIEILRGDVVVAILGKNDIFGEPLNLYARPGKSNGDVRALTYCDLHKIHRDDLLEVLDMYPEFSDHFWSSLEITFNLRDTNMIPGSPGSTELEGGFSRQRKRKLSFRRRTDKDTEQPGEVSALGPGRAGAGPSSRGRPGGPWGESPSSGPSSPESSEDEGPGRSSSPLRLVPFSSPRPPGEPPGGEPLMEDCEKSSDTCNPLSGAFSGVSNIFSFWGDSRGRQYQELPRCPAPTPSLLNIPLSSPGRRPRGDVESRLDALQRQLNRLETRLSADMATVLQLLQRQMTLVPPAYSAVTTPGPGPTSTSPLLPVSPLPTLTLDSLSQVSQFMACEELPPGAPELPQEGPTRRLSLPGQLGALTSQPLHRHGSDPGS

Row | Compound | hERG current change (%, negative = inhibition) at 10uM [%]
1 | O=C(Nc1ccc[n+](CC(=O)c2cccc3ccccc23)c1)c1ccccc1.[Br-] | -58.9
2 | O=C(OCCN1C(=O)CCC1=O)c1ccc(S(=O)(=O)N2CCCCC2)cc1 | 4.21
3 | COc1cccc(-c2nn(-c3ccc(C)cc3)cc2C(=O)NCC2CCCO2)c1 (stereo not drawn) | -62.2
4 | CC(C)NC(=S)N/N=C/c1cccs1 | 7.11
5 | CC1(c2ccccc2)NC(=O)N(CC(=O)Nc2ccc([N+](=O)[O-])cc2)C1=O (stereo not drawn) | -27.3
6 | COc1ccsc1C(=O)N1CCN(Cc2ccc3c(c2)OCO3)CC1 | -16.5
7 | COc1cccc(N2CN(C3CCCCC3)CNC2=S)c1 | 14.7
8 | N#Cc1sc(=O)[nH]c1Cl | 11.8
9 | CC(=O)Nc1ccc(Sc2ncccc2C(=O)Nc2cc(Cl)cc(Cl)c2)cn1 | 26.7
10 | CN1CCN(c2nc(NCCOC34CC5CC(CC(C5)C3)C4)nc(OCC(F)(F)F)n2)CC1 | -60.8
11 | CCOc1ccccc1NC(=O)CN1CCc2ccccc2C1 | -18.3
12 | COc1ccc(-n2nc(C(=O)NCC(=O)N3CCN(c4ccccc4)CC3)c3ccccc3c2=O)c(OC)c1 | 2.3
13 | CCOc1ccccc1Nc1ccnc2cc(Cl)ccc12 | -57.2
14 | CC(=O)NC12CC3CC(C1)CC(C(=O)Nc1nc4ccc(F)cc4s1)(C3)C2 | -56.9
15 | Cc1cc(C)n2nc(C(=O)Oc3ccc4c(c3)OCO4)nc2n1 | 8.26
16 | CC(C)COC(=O)/C(C#N)=C/c1c[nH]c2ccccc12 | 3.29
17 | O=C(c1cn(-c2ccccc2)nc1-c1ccc(F)cc1)N1CCOCC1 | -12.4
18 | COc1ccccc1/C=C/C=N/NC(=O)c1ccc(=O)n(C)c1 | -7.06
19 | Cc1cc(C)c(C)c(S(=O)(=O)NCC(=O)Nc2ccc(F)cc2)c1C | 14.6
20 | COc1ccccc1CNC(=O)COC(=O)c1ccc(N2CCCC2=O)cc1 | 15.6
21 | Cc1ccc(N(CC(=O)N2CCN(c3ccccc3F)CC2)S(=O)(=O)c2c(C)noc2C)cc1 | 20
22 | Cc1ccc(S(=O)(=O)N(c2ccc(Br)cc2)C2C=CS(=O)(=O)C2)cc1 (stereo not drawn) | 13.6
23 | O=C1CC(/C=C/c2ccc(Cl)cc2)=Nc2ccccc2N1 | 11.3

Row | Compound | hERG current change (%, negative = inhibition) at 10uM [%]
24 | c1ccc(CSc2ncn(-c3ccccc3)n2)cc1 | -8.38
25 | CCC(=O)N1CCN(CCN=CC2=C(O)CC(c3cccs3)CC2=O)CC1 (stereo not drawn) | -9.43
26 | O=C(Cc1ccccc1)Nc1nonc1NC(=O)c1ccccc1 | 17.1
27 | CCSc1nnc(NC(=O)[C@@H](NC(=O)c2ccccc2)C(C)C)s1 | 10.3
28 | CCCCOc1ccc(/C(O)=C2/C(=O)C(=O)N(CCCOC)C2c2ccncc2)cc1 (stereo not drawn) | 18.2
29 | CN1c2ccsc2/C(=N/NC(=O)c2c(F)cccc2F)CS1(=O)=O | 4.31
30 | O/N=C(/CCc1ccccc1)c1ccc2c(c1)OCCO2 | -13.2
31 | CC(=O)N1CCN(C(=O)c2oc3ccccc3c2C)CC1 | 8.84
32 | O=C(COC(=O)c1ccccc1C(=O)c1ccc(Cl)cc1)NCCc1ccccc1 | -18.7
33 | Cc1cc(C)c2nc(SC3CCOC3=O)cc(C)c2c1 (stereo not drawn) | 4.23
34 | Cl.Clc1ccc(C2=NNC(=NCC3CCCO3)SC2)cc1 (stereo not drawn) | 0.854
35 | CC1Cc2ccccc2N1C(=O)CN1CCCCC1.Cl (stereo not drawn) | 10.9
36 | Cc1cc(Nc2ccc(Cl)cc2)nc(N2CCOCC2)n1 | 11.5
37 | C[C@@H](NC(=O)c1nc[nH]c1C(=O)NCc1ccc(CNC(=O)OC(C)(C)C)cc1)c1ccccc1 | 6.47
38 | COc1ccccc1NC(=O)C1=C(C)NC(=O)NC1c1cccc(OC)c1OC (stereo not drawn) | 7.41
39 | Oc1nc(Nc2ccccc2)sc1/C=C1\C=Nc2ccccc21 | -1.37
40 | COC(=O)C1CCN(c2cnccn2)CC1 | 12.2
41 | CC1CCC(NC(=O)CNC(=O)Cc2cccc3ccccc23)CC1 (stereo not drawn) | 9.05
42 | CCCC1=Nc2cc(C(=O)NCCN3CCOCC3)ccc2Sc2ccc(C)cc21 | -34.3
43 | COc1cccc(C(=O)SC2=NCCS2)c1 | -12.5
44 | Cn1c(CN2CCOCC2)nnc1SCc1ccc(C#N)cc1 | 17.5
45 | O=C(O)CSC1CC(=O)N(c2ccc(Cl)c(Cl)c2)C1=O (stereo not drawn) | 9.61
46 | Cc1nn(C2CCS(=O)(=O)C2)c(Cl)c1/C=C/C(=O)OCC(=O)c1cc(C)n(-c2ccc(F)cc2)c1C (stereo not drawn) | 4.11

Row | Compound | hERG current change (%, negative = inhibition) at 10uM [%]
47 | Cc1cccc(OCc2cc(-c3ccccc3)no2)c1C | 19.2
48 | Clc1ccc(NCn2cncn2)nc1 | 6.58
49 | CN(C)c1ccc(NC(=O)CN2CCC(N3CCCCC3)CC2)cc1.O=C(O)C(=O)O | 9.68
50 | Cc1c(Cl)cccc1NS(=O)(=O)c1c(C(=O)N2CCOCC2)c(C)n(C)c1C | -2.55
51 | Cn1c(SCC(=O)Nc2ccc(F)cc2)nc2c([nH]c3ccccc32)c1=O | -14.1
52 | COc1ccc(OC)c(S(=O)(=O)N(C(C)=O)c2ccc3oc(=O)sc3c2)c1 | -21.2
53 | CC1Cn2c(nc3sc4c(c3c2=O)CC(C)(C)OC4)N1CCO (stereo not drawn) | 11.7
54 | CCOc1ccc(S(=O)(=O)NCCC(=O)Nc2nnc(C)s2)cc1 | -13.7
55 | CCOc1ccccc1NC(=S)N1CCN(c2cccc(OC)c2)CC1 | 3.57
56 | COc1nnc(-c2ccc(N3CCOCC3)c(NC(=O)c3ccccc3)c2)c2ccccc12 | -19.5
57 | Cc1ccc(-c2nnc(N3CCN(C(=O)c4cccs4)CC3)c3ccccc23)cc1 | -65.4
58 | CC1CCCCN1C(=O)c1ccc(S(=O)(=O)N2CCCCC2C)cc1 (stereo not drawn) | -9.35
59 | COc1cc(/C=C2/C(=O)N=C(N)N2C)cc(OC)c1OC | 5.91
60 | CCN(C(=O)CSc1nnc(-c2ccncc2)n1Cc1ccccc1)C1CCS(=O)(=O)C1 (stereo not drawn) | -8.8
61 | CCOC(=O)c1ccc(OCC(=O)c2ccc(O)cc2O)cc1 | -7.44
62 | Cc1cc(C)cc(C(=O)N2CCN=C2c2ccccc2)c1 | 9.92
63 | COC(=O)c1cccc(/C=N/NC(N)=S)c1O | 6.76
64 | CCn1ncc(Cl)c1C(=O)Nc1ccc2c(c1)CCC2 | 3.85
65 | COc1ccc(-c2cc(C(F)(F)F)nc(N3CCCCC3)n2)cc1OC | 14.4
66 | CCCCNC(=S)N1CCn2cccc2C1c1ccccc1 (stereo not drawn) | 11.3
67 | CC1CN(Cc2cn(C)nc2-c2ccc(Oc3ccccc3)cc2)CCN1C (stereo not drawn) | -57.2
68 | COc1ccc(NC(=O)CSc2nc(N)c(C(=O)Nc3ccc(N(C)C)cc3)s2)cc1 | 12.1
69 | O=C(COc1ccc(Br)cc1)NCc1ccccn1 | -8.53

Row | Compound | hERG current change (%, negative = inhibition) at 10uM [%]
70 | CC(=O)COc1ccccc1OC(=O)c1ccco1 | -8.68
71 | Cn1c(NC(=O)C(C)(C)Oc2ccc(Cl)cc2)cc(=O)n(C)c1=O | -15
72 | Cc1nnc(NC(=O)CSc2nnc(CC(=O)Nc3ccccc3Cl)n2C)s1 | 17.6
73 | COc1ccc(OC)c(NC(=S)N2CCN(c3ccccn3)CC2)c1 | -2.8
74 | S=c1sc2c(N3CCOCC3)ncnc2n1-c1ccccc1 | -3.79
75 | COC(CNC(=O)C(=O)Nc1cc2c3c(c1)CC(=O)N3CCC2)OC | 13.3
76 | Cc1cc(=O)oc2cc(NS(=O)(=O)c3ccccc3)ccc12 | 14
77 | O=C(/C=C/c1ccc(Cl)cc1)Nc1ccccc1N1CCOCC1 | 2.84
78 | CN(Cc1ccccc1)C(=S)NC(=O)c1cccs1 | 8.32
79 | CC(C)C(NC(=O)c1ccccc1NC(=O)c1ccccc1)C(=O)NCCCn1ccnc1 (stereo not drawn) | -18.2
80 | Cc1ccc(C)c(N2CC(C(=O)O)CC2=O)c1 (stereo not drawn) | -2.08
81 | COc1ccc(C(=O)N/C(=C\c2cn(S(=O)(=O)N(C)C)c3ccccc23)C(=O)NCCN2CCOCC2)cc1OC | -4.68
82 | C=CCNC(=O)c1onc(CSc2cc(C)cc(C)c2)c1C(=O)NCC=C | 10.4
83 | Cc1cc(C(F)(F)F)n(-c2nc(C(=O)NN)cs2)n1 | 22.4
84 | CCOc1ccc2nc(N(CCN(C)C)C(=O)c3ccc4c(c3)CCCC4)sc2c1.Cl | -1.63
85 | CCOC(=O)c1nnn(-c2nonc2OC)c1-c1ccccc1 | -5.93
86 | O=C(CN1C(=O)NC(c2ccccc2)(c2ccccc2)C1=O)NCc1cccs1 | 5.95
87 | CC(C)CCNC(=S)Nc1ccccn1 | -5.33
88 | Cc1nn(Cc2nnc(SCC(=O)Nc3ccc(Cl)cc3)n2C)c(C)c1[N+](=O)[O-] | -22.9
89 | Cc1cc2ncn(-c3nnnn3-c3ccccc3)c2cc1C | -10.1
90 | CCN(CC)c1ccc(S(=O)(=O)N2CCOCC2)cc1NC(=O)CSc1nncs1 | -34.9
